Values quoted from earlier work in patent US4419349A (priority 1978, dated 1983).

Test system: interferon induction
Conditions: 56 °C, 5 hours; cited from earlier work

Row | Molecule | IF-inducing activity after heating
1 | phytohemagglutinin | inactivated
2 | pokeweed mitogen | inactivated

Same assay, conditions: cited from earlier work

Row | Molecule | IF-inducing activity
3 | C=C(C)[C@@H]1CC=C(C)CC1 [Sample 1-limonene, 1-limonene] | no IF-inducing activity
4 | CC(C)[C@@H]1CC[C@@H](C)C[C@H]1O [Sample 1-menthol, 1-menthol] | no IF-inducing activity
5 | CC(C)=CC(=O)c1occc1C [naginata ketone] | no IF-inducing activity
6 | C=C(C)C1CC=C(C=O)CC1 (stereo not shown) [perilla aldehyde] | no IF-inducing activity
7 | CC(C)CCC(=O)c1ccoc1 [perilla ketone] | no IF-inducing activity
8 | O=C(/C=C/c1ccc(O)cc1)OC[C@H]1O[C@@H](Oc2cc3c(O[C@@H]4O[C@H](CO)[C@@H](O)[C@H](O)[C@H]4O)cc(O)cc3[o+]c2-c2ccc(O)c(O)c2)[C@H](O)[C@@H](O)[C@@H]1O [shisonin] | no IF-inducing activity
9 | CC1=CCC2CC1C2(C)C (stereo not drawn) [α-pinene] | no IF-inducing activity

Same assay, conditions: literature statement; cited from earlier work

Row | Molecule | IF-inducing activity
10 | dihydroperilla alcohol | no IF-inducing activity
